Paper PMC10336126
These are yes or no findings as the source states them, for the method shown. For some of these results: In cells and extracts the contact can be indirect. Some entries that bind do so weakly or less than the wild type. For some of these results: Where a sequence is shown, tags or fusion partners need not be part of it. One block for each molecule: values may come before it.

Amino acid sequences for entries named in this document (tags omitted).
UniProt P62136: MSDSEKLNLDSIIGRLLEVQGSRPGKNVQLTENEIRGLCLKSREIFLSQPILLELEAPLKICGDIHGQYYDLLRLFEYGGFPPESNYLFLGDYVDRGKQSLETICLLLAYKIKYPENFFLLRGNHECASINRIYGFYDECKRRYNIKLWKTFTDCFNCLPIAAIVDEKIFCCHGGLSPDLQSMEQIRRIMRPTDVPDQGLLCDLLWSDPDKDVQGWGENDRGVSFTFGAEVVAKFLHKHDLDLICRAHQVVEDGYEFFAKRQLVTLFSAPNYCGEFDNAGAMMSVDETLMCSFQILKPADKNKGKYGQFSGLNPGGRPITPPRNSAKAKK
UniProt Q00416: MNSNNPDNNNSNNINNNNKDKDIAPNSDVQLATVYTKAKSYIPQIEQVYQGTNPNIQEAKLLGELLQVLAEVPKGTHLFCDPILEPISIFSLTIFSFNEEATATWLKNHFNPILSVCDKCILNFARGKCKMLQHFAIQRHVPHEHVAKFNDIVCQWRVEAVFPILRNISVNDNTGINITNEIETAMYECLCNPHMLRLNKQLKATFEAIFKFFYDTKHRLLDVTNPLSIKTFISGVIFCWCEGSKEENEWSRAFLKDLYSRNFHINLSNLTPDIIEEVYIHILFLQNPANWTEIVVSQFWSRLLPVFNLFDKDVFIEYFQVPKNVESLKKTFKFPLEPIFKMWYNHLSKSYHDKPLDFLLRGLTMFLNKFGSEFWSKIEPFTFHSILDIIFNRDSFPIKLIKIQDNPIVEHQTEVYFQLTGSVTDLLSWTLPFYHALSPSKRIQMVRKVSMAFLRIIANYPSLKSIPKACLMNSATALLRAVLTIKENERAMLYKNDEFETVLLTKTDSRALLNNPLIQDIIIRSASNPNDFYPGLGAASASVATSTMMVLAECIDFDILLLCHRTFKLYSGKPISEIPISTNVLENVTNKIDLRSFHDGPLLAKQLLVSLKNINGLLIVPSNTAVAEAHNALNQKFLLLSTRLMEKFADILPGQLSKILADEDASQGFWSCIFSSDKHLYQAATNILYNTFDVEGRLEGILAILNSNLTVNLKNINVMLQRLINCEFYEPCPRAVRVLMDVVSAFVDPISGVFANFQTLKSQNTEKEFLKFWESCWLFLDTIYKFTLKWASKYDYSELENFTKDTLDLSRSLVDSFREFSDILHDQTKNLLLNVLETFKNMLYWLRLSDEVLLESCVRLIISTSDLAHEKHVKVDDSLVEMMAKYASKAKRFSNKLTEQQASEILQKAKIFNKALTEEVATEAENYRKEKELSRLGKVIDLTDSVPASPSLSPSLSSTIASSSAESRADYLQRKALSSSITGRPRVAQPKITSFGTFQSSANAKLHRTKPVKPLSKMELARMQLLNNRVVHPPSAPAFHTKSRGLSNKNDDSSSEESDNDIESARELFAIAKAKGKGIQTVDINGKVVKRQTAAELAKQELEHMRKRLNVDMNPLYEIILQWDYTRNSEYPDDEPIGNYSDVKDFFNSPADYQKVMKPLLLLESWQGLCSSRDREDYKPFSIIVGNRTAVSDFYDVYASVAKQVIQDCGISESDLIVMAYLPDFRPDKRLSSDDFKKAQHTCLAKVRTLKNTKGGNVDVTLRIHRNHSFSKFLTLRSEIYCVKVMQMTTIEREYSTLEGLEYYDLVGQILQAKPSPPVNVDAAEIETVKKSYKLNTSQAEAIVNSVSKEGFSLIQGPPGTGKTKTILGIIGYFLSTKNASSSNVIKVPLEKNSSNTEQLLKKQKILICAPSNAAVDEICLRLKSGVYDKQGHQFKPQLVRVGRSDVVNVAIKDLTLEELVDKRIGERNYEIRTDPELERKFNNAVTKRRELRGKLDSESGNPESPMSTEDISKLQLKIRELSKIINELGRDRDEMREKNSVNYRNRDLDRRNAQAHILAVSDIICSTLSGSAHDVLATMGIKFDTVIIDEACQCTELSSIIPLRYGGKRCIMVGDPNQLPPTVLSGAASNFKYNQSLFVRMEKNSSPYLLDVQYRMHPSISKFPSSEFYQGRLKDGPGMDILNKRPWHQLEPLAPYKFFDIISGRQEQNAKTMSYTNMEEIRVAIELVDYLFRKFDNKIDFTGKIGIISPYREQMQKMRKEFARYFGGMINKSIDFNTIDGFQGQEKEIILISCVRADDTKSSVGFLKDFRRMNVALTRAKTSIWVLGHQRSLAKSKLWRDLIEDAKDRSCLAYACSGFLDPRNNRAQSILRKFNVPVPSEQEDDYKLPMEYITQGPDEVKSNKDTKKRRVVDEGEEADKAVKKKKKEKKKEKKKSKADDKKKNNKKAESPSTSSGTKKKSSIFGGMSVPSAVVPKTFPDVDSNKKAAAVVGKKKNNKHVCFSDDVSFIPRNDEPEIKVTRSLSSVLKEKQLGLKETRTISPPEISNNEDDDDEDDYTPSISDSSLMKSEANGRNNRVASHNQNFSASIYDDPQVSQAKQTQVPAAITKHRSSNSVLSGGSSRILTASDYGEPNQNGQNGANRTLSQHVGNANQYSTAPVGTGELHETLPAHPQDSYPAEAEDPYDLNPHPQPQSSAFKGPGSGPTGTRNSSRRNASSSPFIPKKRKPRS
UniProt P29539: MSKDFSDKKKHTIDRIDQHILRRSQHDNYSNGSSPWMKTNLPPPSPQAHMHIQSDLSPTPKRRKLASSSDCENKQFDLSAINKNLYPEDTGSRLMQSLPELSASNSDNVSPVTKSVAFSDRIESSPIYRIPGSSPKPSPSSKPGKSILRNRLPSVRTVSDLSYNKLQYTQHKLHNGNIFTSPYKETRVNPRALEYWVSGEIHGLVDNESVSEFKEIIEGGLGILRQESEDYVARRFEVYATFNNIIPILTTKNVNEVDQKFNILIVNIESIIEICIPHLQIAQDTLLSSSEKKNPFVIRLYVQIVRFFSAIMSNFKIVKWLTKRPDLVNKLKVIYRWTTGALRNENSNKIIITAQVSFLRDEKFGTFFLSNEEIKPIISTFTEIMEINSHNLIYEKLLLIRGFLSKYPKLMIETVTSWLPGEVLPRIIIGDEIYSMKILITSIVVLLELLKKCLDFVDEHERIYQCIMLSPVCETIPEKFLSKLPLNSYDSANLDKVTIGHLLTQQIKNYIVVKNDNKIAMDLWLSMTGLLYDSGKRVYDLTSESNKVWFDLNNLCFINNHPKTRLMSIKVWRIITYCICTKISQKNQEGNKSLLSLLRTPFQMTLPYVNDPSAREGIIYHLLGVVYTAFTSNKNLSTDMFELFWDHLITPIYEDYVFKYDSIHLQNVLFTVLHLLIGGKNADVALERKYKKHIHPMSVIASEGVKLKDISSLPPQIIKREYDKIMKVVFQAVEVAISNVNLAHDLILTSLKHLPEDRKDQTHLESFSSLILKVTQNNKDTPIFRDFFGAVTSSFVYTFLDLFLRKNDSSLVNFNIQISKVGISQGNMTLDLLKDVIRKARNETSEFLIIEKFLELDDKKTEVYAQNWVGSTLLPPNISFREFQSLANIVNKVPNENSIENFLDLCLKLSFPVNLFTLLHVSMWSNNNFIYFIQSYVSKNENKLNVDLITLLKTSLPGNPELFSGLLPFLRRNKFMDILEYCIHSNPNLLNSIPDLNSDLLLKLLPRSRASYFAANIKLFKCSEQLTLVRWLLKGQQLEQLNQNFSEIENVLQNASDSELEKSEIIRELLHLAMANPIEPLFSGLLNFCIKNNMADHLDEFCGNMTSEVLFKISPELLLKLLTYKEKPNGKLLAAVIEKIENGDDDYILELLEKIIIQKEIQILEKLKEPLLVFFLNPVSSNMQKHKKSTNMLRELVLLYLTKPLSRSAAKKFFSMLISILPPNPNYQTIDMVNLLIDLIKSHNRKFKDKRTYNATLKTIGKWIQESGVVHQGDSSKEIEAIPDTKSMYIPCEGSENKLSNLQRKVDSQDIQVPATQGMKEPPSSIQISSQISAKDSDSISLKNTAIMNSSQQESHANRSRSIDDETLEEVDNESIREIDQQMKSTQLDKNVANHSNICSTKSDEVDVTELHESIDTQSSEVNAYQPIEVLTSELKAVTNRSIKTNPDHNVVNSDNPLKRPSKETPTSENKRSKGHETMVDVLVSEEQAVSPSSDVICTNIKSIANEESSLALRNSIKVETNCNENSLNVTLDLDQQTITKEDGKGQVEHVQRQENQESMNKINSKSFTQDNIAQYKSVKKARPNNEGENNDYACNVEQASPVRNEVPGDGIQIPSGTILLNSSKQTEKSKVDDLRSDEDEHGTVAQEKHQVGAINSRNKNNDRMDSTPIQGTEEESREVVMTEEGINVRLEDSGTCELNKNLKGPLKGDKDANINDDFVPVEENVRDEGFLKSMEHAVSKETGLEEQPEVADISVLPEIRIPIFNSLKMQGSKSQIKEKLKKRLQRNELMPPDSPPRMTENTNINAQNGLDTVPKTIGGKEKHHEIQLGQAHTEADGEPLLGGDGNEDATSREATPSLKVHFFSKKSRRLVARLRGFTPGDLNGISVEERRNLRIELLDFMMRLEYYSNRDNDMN
UniProt P32598: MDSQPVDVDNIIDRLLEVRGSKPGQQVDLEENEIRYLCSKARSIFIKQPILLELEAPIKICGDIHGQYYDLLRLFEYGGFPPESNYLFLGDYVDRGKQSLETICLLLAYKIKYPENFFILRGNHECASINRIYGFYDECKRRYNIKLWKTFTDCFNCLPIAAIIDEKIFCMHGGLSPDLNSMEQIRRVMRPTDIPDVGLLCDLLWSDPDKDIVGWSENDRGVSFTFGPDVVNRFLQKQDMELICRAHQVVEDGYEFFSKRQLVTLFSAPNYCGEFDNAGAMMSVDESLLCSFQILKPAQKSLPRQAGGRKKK

Columns and labels:
[1] = biological target: PPP1CA (PP1 catalytic subunit, alpha isoform) (human (in human cell lines: HeLa, HUVEC, HEK293T)) (UniProt P62136); assay: co-IP; mammalian cells lysed in buffer A (50 mM Tris pH7.4, 150 mM NaCl, 1 mM EDTA, 6 mM sodium deoxycholate, 1% NP-40); antibody on Protein A/G Sepharose, 4 °C overnight; immunoblot
[2] = biological target: Sen1-TAP, endogenously expressed (budding yeast (endogenous in yeast cells)) (UniProt Q00416); assay: co-IP; yeast whole cell extract; anti-FLAG M2 agarose, calmodulin Sepharose beads or antibody on Protein A/G Sepharose, 4 °C; washes with 350 mM NaCl, 0.1% NP-40; immunoblot; also cells in SD (+Glu) or SD-C (-Glu) medium for 2 h (Sen1-Glc7 increased, Rif1-Glc7 unaffected without glucose)
[3] = biological target: Rif1-CBP, purified by tandem affinity purification (budding yeast (endogenous in yeast cells)) (UniProt P29539); assay: tandem affinity purification from yeast cells, partner found in the purified complex; Sen1-CBP or Rif1-CBP purified by tandem affinity purification from yeast cells; Glc7 co-purified
[4] = biological target: Sen1-TAP, endogenously expressed (budding yeast (endogenous in yeast cells)) (UniProt Q00416); assay: as above
[5] = biological target: Glc7 (protein phosphatase 1 catalytic subunit), endogenously expressed (budding yeast (endogenous in yeast cells)) (UniProt P32598); assay: co-IP; yeast whole cell extract; anti-FLAG M2 agarose, calmodulin Sepharose beads or antibody on Protein A/G Sepharose, 4 °C; washes with 350 mM NaCl, 0.1% NP-40; immunoblot; also cells in SD (+Glu) or SD-C (-Glu) medium for 2 h (Sen1-Glc7 increased, Rif1-Glc7 unaffected without glucose)
[6] = biological target: Sen1, endogenously expressed (tag not stated) (budding yeast (endogenous in yeast cells)) (UniProt Q00416); assay: as above
[7] = biological target: Rif1 (mammalian homolog of yeast Rif1) (human (in human cell lines: HeLa, HUVEC, HEK293T)) (UniProt Q5UIP0); assay: co-IP; mammalian cells lysed in buffer A (50 mM Tris pH7.4, 150 mM NaCl, 1 mM EDTA, 6 mM sodium deoxycholate, 1% NP-40); antibody on Protein A/G Sepharose, 4 °C overnight; immunoblot
[8] = biological target: senataxin (SETX), homolog of Sen1 (human (in human cell lines: HeLa, HUVEC, HEK293T)) (UniProt Q7Z333); assay: as above

binding [1]: binds
Molecule: Rif1 (mammalian homolog of yeast Rif1) (from UniProt Q5UIP0 1-2472)

binding [1]: binds
Molecule: senataxin (SETX), homolog of Sen1 (from UniProt Q7Z333 1-2677)

binding [2]: binds | binding [3]: binds | binding [4]: binds
Molecule: Glc7 (protein phosphatase 1 catalytic subunit), endogenously expressed (from UniProt P32598 1-312) (enzyme)

binding [5]: binds | binding [6]: no binding
Molecule: Rif1 (Rap1-interacting factor 1), endogenously expressed (tag not stated) (from UniProt P29539 1-1916)

binding [7]: binds
Molecule: PPP1CA (PP1 catalytic subunit, alpha isoform) (from UniProt P62136 1-330) (enzyme)
binding [8]: binds

binding [5]: no binding
B1: Reb1 (protein, UniProt P21538 1-810)
chain: MPSGHNDKNANQESVEEAVLKYVGVGLDHQNHDPQLHTKDLENKHSKKQNIVESSSDVDVNNNDDSNRNEDNNDDSENISALNANESSSNVDHANSNEQHNAVMDWYLRQTAHNQQDDEDDENNNNTDNGNDSNNHFSQSDIVVDDDDDKNKKDAGVGVDDDHQSMAMAAVAAAYTLSKNNNNNNSIANDSNSRKRQHDNGNNHENSQKKRKNNNDDDDRQIGNVDPELTTLGDADDNDTNNDVIDRDQLVHKAIIDADSITQHPDFQQYLNTAADTDDNEKLKHIKDHLMRTHGLNHQNKNHNDDTDDLSNSTKQYSELQKDSMLDSSLNKSRNYMEVLPKVISQDTQPHQQKSPSHDNEAGSVDNSEISQLLQSAATKASSLVSLSSSSATPSTSRSNNSKAFDKAEDAALERFINEYEAIERLTRQQVCERIWSSDRPKDNFWNNIYKVLPYRSSSSIYKHMRRKYHIFEQRGKWTAEEEQELAKLCAEKEGQWAEIGKTLGRMPEDCRDRWRNYVKCGTNRASNRWSVEEEELLKKVISDMLEEAQQQQSQLHPNLLEEEQHLLQDDQNDHRNNDEDDDDTASAAAAAAAAIQEQQQLLQQKQQDDDDAIAAAAAAASSSLGDNKDEDKPHDSLGIQLDDNSQNSMVPAPSATSTHSKSLSNTIRRHNNKLRKSLMGNGKLDFKDIINWTIVSERMGGTRSRIQCRYKWNKLVKREAIAKIQTVKDDDMLWIFEKLRDLGITEDSQVDWDELAALKPGMKLNGLELKLCYERMKKKVKGYKQKSINEISKELVDYFSSNISMKTEN

binding [5]: binds | binding [6]: no binding
B2: Rap1, endogenously expressed (tag not stated) (protein, UniProt P11938 1-827)
chain: MSSPDDFETAPAEYVDALDPSMVVVDSGSAAVTAPSDSAAEVKANQNEENTGATAAETSEKVDQTEVEKKDDDDTTEVGVTTTTPSIADTAATANIASTSGASVTEPTTDDTAADEKKEQVSGPPLSNMKFYLNRDADAHDSLNDIDQLARLIRANGGEVLDSKPRESKENVFIVSPYNHTNLPTVTPTYIKACCQSNSLLNMENYLVPYDNFREVVDSRLQEESHSNGVDNSNSNSDNKDSIRPKTEIISTNTNGATEDSTSEKVMVDAEQQARLQEQAQLLRQHVSSTASITSGGHNDLVQIEQPQKDTSNNNNSNVNDEDNDLLTQDNNPQTADEGNASFQAQRSMISRGALPSHNKASFTDEEDEFILDVVRKNPTRRTTHTLYDEISHYVPNHTGNSIRHRFRVYLSKRLEYVYEVDKFGKLVRDDDGNLIKTKVLPPSIKRKFSADEDYTLAIAVKKQFYRDLFQIDPDTGRSLITDEDTPTAIARRNMTMDPNHVPGSEPNFAAYRTQSRRGPIAREFFKHFAEEHAAHTENAWRDRFRKFLLAYGIDDYISYYEAEKAQNREPEPMKNLTNRPKRPGVPTPGNYNSAAKRARNYSSQRNVQPTANAASANAAAAAAAAASNSYAIPENELLDEDTMNFISSLKNDLSNISNSLPFEYPHEIAEAIRSDFSNEDIYDNIDPDTISFPPKIATTDLFLPLFFHFGSTRQFMDKLHEVISGDYEPSQAEKLVQDLCDETGIRKNFSTSILTCLSGDLMVFPRYFLNMFKDNVNPPPNVPGIWTHDDDESLKSNDQEQIRKLVKKHGTGRMEMRKRFFEKDLL

binding [5]: no binding
B3: Cdc13 (protein, UniProt P32797 1-924)
chain: MDTLEEPECPPHKNRIFVSSSKDFEGYPSKAIVPVQFVALLTSIHLTETKCLLGFSNFERRGDQSQEDQYLIKLKFKDRGSERLARITISLLCQYFDIELPDLDSDSGASPTVILRDIHLERLCFSSCKALYVSKHGNYTLFLEDIKPLDLVSVISTISTKSTNSSKHSSSELISECDLNNSLVDIFNNLIEMNRDEKNRFKFVKLIHYDIELKKFVQDQQKVLSQKSKAAAINPFFVPNRLGIPYIESQNEFNSQLMTLNVDEPTTDISNMGEEMHDSADPIEDSDSSTTSSTGKYFSSKSYIQSQTPERKTSVPNNWHDDDSGSKRKRKLSFHSPNASSIRKAISYEQLSLASVGSVERLEGKIVGMNPPQFASINEFKYCTLKLYFTQLLPNVPDKVLVPGVNCIEIVIPTRERICELFGVLNCQSDKISDILLLEKPDRISVEVERILWDNDKTASPGMAVWSLKNISTDTQAQAQVQVPAQSSASIDPSRTRMSKMARKDPTIEFCQLGLDTFETKYITMFGMLVSCSFDKPAFISFVFSDFTKNDIVQNYLYDRYLIDYENKLELNEGFKAIMYKNQFETFDSKLRKIFNNGLRDLQNGRDENLSQYGIVCKMNIKVKMYNGKLNAIVRECEPVPHSQISSIASPSQCEHLRLFYQRAFKRIGESAISRYFEEYRRFFPIHRNGSHLAKLRFDEVKHEPKKSPTTPALAEHIPDLNADVSSFDVKFTDISSLLDSSARLPRPQQTHKSNTLYSCEGRIIAIEYHASDLCFHITNELPLLQTRGLAPERVLQLHIITSKNFAYFFNRSSAYLQRQPLEEKYTQLAQFLGHSFKFNITSSLTLFPDTTVALQIWCPIECTFRELQQQLAHPKVAAAPDSGSLDCAINATVNPLRLLAAQNGVTVKKEEDNDDDAGAVPTS
